Assay results: the RNAGym collection of RNA variant scans (doi:10.7554/elife.90254)
Read counts are not given, so values of variants with three or more changes are uncertain.

B1: LINE1-full (parent)
chain: UACGUAGGUGGUUUUCCCCUGAUAGUGCUAAGGGGGCCUGGAAGUUUGGACUGGGCAGAGCUCAACACAGCGUGGCAAAGUGGCUGUGGCUAGACUGCCUCUCUGGAUUCCUCGUCACUCAGCAGGGCAUCUCUGAGAGAAAUGCC

Variants of: B1
Assay: self-cleavage, relative activity (ratio to wild type); higher = more cleavage; in vitro, sequencing; the parent is a self-cleaving ribozyme
With U13C U62A U81A the self-cleavage was 0.06. U47C G72A A92G A141U showed a self-cleavage of 0.06. With A2G U23C G33U U46A U112C U130C the self-cleavage was 1.84. Work on A69U U112C U132C yielded a self-cleavage of 0.04. G60A A77G U130A showed a self-cleavage of 0.01. For G40A U46A U47C A50G, the self-cleavage was 0.92. Variant U5A U20C A94G A138G has a self-cleavage of 0.41. In the case of G34A A42G G55A A124U, the self-cleavage is reported as 0.45. Work on U45G U108C A141G yielded a self-cleavage of 1.35. For U85C C98U A142G, the self-cleavage was 0.04. G11A U62A A64G A129G U132C showed a self-cleavage of 0.18. Variant U13C U14C U26C U52C G75A has a self-cleavage of 0.7. A50G G89A A140C showed a self-cleavage of 0.02. For U9C U26C U100C U132C, the self-cleavage was 1.2. U20C U45C A57U gave a self-cleavage of 0.31. In the case of A59G A117U U134C, the self-cleavage is reported as 0.18. Variant U39C U45C C56U A94U U109A A142G has a self-cleavage of 0.01. For A30G G35A A59G A79G, the self-cleavage was 0. Work on U12G A43G U130C yielded a self-cleavage of 1.02. Work on A64G U73C U104A yielded a self-cleavage of 0.18. For U81C U87C G88A, the self-cleavage was 0.14. With A22G A42G A43G the self-cleavage was 1.31. With U29C U39C U87A the self-cleavage was 0.04. Work on A6G U13C U115A U134G yielded a self-cleavage of 0.7. With U45G U47G U108C the self-cleavage was 0.81. Variant A6G U12G A67G U130C has a self-cleavage of 0. In the case of U47C U104A A124G U143A, the self-cleavage is reported as 0.44. U15C G34U A50G showed a self-cleavage of 0.77. Variant A64G A78G U96A A107G has a self-cleavage of 0. For A65G U119C C133A, the self-cleavage was 0.04. Variant U9G U15C U100C has a self-cleavage of 1.06. U12G U13C U47C G53A A140G gave a self-cleavage of 2.83. U47C A107G C123A A124G showed a self-cleavage of 0.51. In the case of C19U U130C C131A, the self-cleavage is reported as 1.06. Work on G36A U62A A79G A136G yielded a self-cleavage of 0.03. For U12C G34A U119A, the self-cleavage was 1.58. For U39C G54A U85C C98U U102A U115C, the self-cleavage was 0.09. Variant U1C U20C A22G A30G A31G G72A A136G has a self-cleavage of 0.77. G36A A43G U73C showed a self-cleavage of 0. U9C A77G A136U gave a self-cleavage of 2.87. A77G A78G A121U showed a self-cleavage of 1.15. U13A U46C G122U showed a self-cleavage of 1.14. For A2U U26C A107U, the self-cleavage was 0. A43G A65G C103U gave a self-cleavage of 0.05. Work on G27A A31U A136G yielded a self-cleavage of 1.15. In the case of U39C A77G A124U U143A, the self-cleavage is reported as 2.85. U23C U46C U143A showed a self-cleavage of 1.51. A30G A31G U45C A121G gave a self-cleavage of 0.77. Variant U73A U87A U108A A129G has a self-cleavage of 0.07. Variant U13C A79G U85A A138G has a self-cleavage of 0. G11U U13G U62C gave a self-cleavage of 0.12. With U15A G34U U62C the self-cleavage was 0.06. With A2G U62C U119A the self-cleavage was 0.16. With G4A A50G U100A A142G the self-cleavage was 0.13. In the case of U26A A69U A141G, the self-cleavage is reported as 0.03. For U12A U73A U100C U115A, the self-cleavage was 2.64. Variant U45C A124C A129U U132C has a self-cleavage of 1.61. Variant U13A G82A C99U U108C has a self-cleavage of 0.71. U12A U15C U39C C76U U96C showed a self-cleavage of 0.22. With C18A A65G A140U U143C the self-cleavage was 0.1. Variant U85A U112C U119C has a self-cleavage of 0.09. In the case of U12G G75A A124U G135A A140G, the self-cleavage is reported as 1.7. In the case of G34A U91A A92G, the self-cleavage is reported as 0.09. With U14C A69U A117U U130A the self-cleavage was 0.1. Variant A65G U91C U134A A136U has a self-cleavage of 0.33. U13A A65G C71U C146U showed a self-cleavage of 0.06. With C63U A140G U143A the self-cleavage was 0.27. U5A U12C U39C showed a self-cleavage of 0.74. Work on U1G U109A U130C yielded a self-cleavage of 1.21. U23C U73C U85C A136U showed a self-cleavage of 0. For A22G A65G U85A U112C, the self-cleavage was 0. U1C A117C G127U gave a self-cleavage of 1.37. U46A G127A A129G gave a self-cleavage of 1.3. With U12C C18U U115C U130C the self-cleavage was 0.92. Work on U46C C110A U115C U143A yielded a self-cleavage of 1.64. For U26C A77U A140G, the self-cleavage was 1.59. Work on A50U U100C A107G A124G yielded a self-cleavage of 0. In the case of A69G U81A C118A A142G, the self-cleavage is reported as 0.32. U9A A77U U115A C123G showed a self-cleavage of 2.14. Variant U20C C68U U87C U96A has a self-cleavage of 0.04. U85A A107U U130C showed a self-cleavage of 0.09. For U1C A64G U81C, the self-cleavage was 0.41. In the case of A42G G82U G89A, the self-cleavage is reported as 0.04. In the case of A31U A77G A79G U87A, the self-cleavage is reported as 0.32. Variant A2G A43G U130C has a self-cleavage of 0.35. With G27A U39A U62C U85C U109G the self-cleavage was 0. Variant U85C U115C A121G has a self-cleavage of 0. Variant U47C A64G C66A A78U U109A U132C A142G has a self-cleavage of 0. In the case of G10U A69G C120A, the self-cleavage is reported as 0.6. In the case of U14A A59G U91A, the self-cleavage is reported as 0.1. In the case of U14C U87A A124G U132C, the self-cleavage is reported as 0.04. In the case of U26C U29C C99U, the self-cleavage is reported as 0.1. In the case of A22G A42G A64U C113U, the self-cleavage is reported as 0.49. Variant U1C U13C U62C A140G has a self-cleavage of 0. In the case of U52G A121U U132C A138G, the self-cleavage is reported as 1.13. With U14C U45A A124G A129G the self-cleavage was 1.21. In the case of A43G A67G A124U, the self-cleavage is reported as 0.15. Work on G7A U23C U112C yielded a self-cleavage of 1.46. In the case of G33A A69U A79G U132C A138G, the self-cleavage is reported as 0. U15A A77U A78G U143C gave a self-cleavage of 0.71. For A43G A64G U119A A141G, the self-cleavage was 0.27. U52A U104A C123G showed a self-cleavage of 1.06. Work on U13C G33A U81A G122A yielded a self-cleavage of 1.39. In the case of U5A U15A U62C U73A G97A, the self-cleavage is reported as 0.04. Work on C3U A30U A42G A77G A129U A142G yielded a self-cleavage of 1.23. Work on U15A A43G C118U yielded a self-cleavage of 1.51. In the case of U81A U100C A140G, the self-cleavage is reported as 2.99. U1C U12C A22G U81A C116U showed a self-cleavage of 1.41. Variant U14C A42G A65G has a self-cleavage of 0.22. A2G U14C A78U A107G showed a self-cleavage of 0.79. In the case of U14A G35U U73C U81A A107G U134A A140U, the self-cleavage is reported as 1.34. Work on G11A G34A A67G U109C yielded a self-cleavage of 0.15. Work on U9C U12C U73A yielded a self-cleavage of 1.99. Work on A43G A69U U134A yielded a self-cleavage of 0.13. For U14G U45C A136G, the self-cleavage was 0.92. G74A U91C U112C A141U showed a self-cleavage of 0.31. G10A U108C A136U gave a self-cleavage of 0.99. U12G C103U U112C gave a self-cleavage of 0.94. For U1C U13C A30U G40U U52A A69U A138G, the self-cleavage was 0.01. In the case of U62C A79G C116U, the self-cleavage is reported as 0. With G4A A31U U45G the self-cleavage was 1.18. In the case of C17U U46A U134C, the self-cleavage is reported as 1.08. A42U A59G U102C A136G gave a self-cleavage of 0.1. Variant U81G C90A A92C has a self-cleavage of 0.01. With A6G A78U U81A U134C the self-cleavage was 2.35. U9C A31U A107G gave a self-cleavage of 2.35. Variant G75A U104C A136U has a self-cleavage of 1.6. In the case of C98G C111U C120U, the self-cleavage is reported as 0.11. For A24G U29A A138G, the self-cleavage was 0.97. U39C A92G A140G gave a self-cleavage of 0.12. U12C A57G U62A U108C A136C showed a self-cleavage of 0. For U13C U20A A22U A107G, the self-cleavage was 0.66. For A6G U115C A117C, the self-cleavage was 0. U5A U23C A24G U52A U87A C103U showed a self-cleavage of 0.21. With A117G U119A G126A A142G the self-cleavage was 0.69. Work on U5C U13C U52C A78G A121U yielded a self-cleavage of 0.46. U9C A79G U115C U132C showed a self-cleavage of 1.47. For U5A U15C U52C U87A A124U, the self-cleavage was 0.14. Variant U5A G7U U85C A140G has a self-cleavage of 0.16. A78G U81C U96A U100C gave a self-cleavage of 0.26. A77U U104C U130A gave a self-cleavage of 1.81. In the case of A50G A94G A129U, the self-cleavage is reported as 0. Work on G8C G53A U62C yielded a self-cleavage of 0.11. Work on U9C U85A A94G C110A U132C A141G yielded a self-cleavage of 0.07. For A69U A77U G122A A142G U143C, the self-cleavage was 0.05. A2G U23C U100C showed a self-cleavage of 0.8. Variant U14C A57U U73A A129G has a self-cleavage of 0. Work on U26A A140G A141G yielded a self-cleavage of 0.18. Work on U39A U102C U130C U132C yielded a self-cleavage of 0.71. For G36U A79G A129U, the self-cleavage was 1.37. With U12C A57U A136G A141C the self-cleavage was 0.23. In the case of A2G U45C U46A G72A, the self-cleavage is reported as 1.23. Work on A30G U85C A136G A142G yielded a self-cleavage of 0. With U73C U81C U132C U143A the self-cleavage was 2.3. Work on A22G A67G A92G yielded a self-cleavage of 0. U15A A50U U102A A138G showed a self-cleavage of 1.19. Variant A6G U102C A107G has a self-cleavage of 0. With A67C U96C A141G the self-cleavage was 0. Work on U26C A42U A141G yielded a self-cleavage of 0.86. With U12C U15C G125U the self-cleavage was 1.37. For U73C U87A A121G U134A, the self-cleavage was 0.06. For U62A A121U U134C, the self-cleavage was 0.05. In the case of U13C U112C A142G, the self-cleavage is reported as 1.99. For U12G U115C A142C, the self-cleavage was 0.98. In the case of A30U A50G U85C, the self-cleavage is reported as 0. With G8C U112C A138C the self-cleavage was 1.99. U12C A78G U119C gave a self-cleavage of 2.3.
